# The other results are listed elsewhere or left out.
# B1: PX9961T-pdi-555-33-555 (Parabacteroides distasonis) (protein)
# chain: FDEETAFQSPTLVYVNTVASLYNNMFKIMGNDRHVYDLNTFSSDEAMLPCRIGDWEDGGLWQNIFLHRWGTMNDLTKNSWDFLYEQIGKCNQSVDKLQAFAEEQPDVEYFKVYLEEVRAVRAFFYYELLDLFARVPLVTSSTTPMSEVKQSERSVVFNFVRSELEEALPYLSDNRSNQKGEYYGRITKPVAYMILAKLALNAEVYADDNWTDGNRPAGKNIKFTVDGKEMNAWEATIAYVDKLEALGYKLQGNFSENFAVANETSVENIFTVPMDPVAYPDAKDYNLVRTRHYDHATAYGQSGWNGSCATVKAMNVFKFGTADEDPRCKLTYFTGEVTGPDGKTIYTEWDGQKVPLKYEPNAPKVYMDASDGLLVKTAGARMAKYEFDQNAQDGGNLHGNDCVIFRFADALLMKAEAKIRLGQNGDDEVNQVRNRVGAKPLQNVTLDTLLDERMLELAWEGVRRQDLIRFGKFTEATVDRYVGVKHFASSLDYQEDKTGYTTVFSIYADILSLNPNLTQNPGY
# Legend:
# Test in all cases: glycan array binding signal (z-score within array); higher = stronger binding
# Details in all cases: glycan notation: IUPAC condensed, linker removed
# [1] = biological target: Neu5Ac(a2-6)GlcNAc(b1-4)GlcNAc(b1-4)GlcNAc
# Procedure, shortened: (§1)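 Negative Z-scores can be read as non-binding. The Z-score is calculated within each array and then averaged across arrays of one protein sequence at different concentrations or buffers and across linkers. Arrays, 3228 in all, were curated from the Consortium for Functional Glycomics database and kept only where the protein sequence was available.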
# Neu5Ac(a2-8)Neu5Ac = biological target: Neu5Ac(a2-8)Neu5Ac
# Procedure, shortened: as §1
# [2] = biological target: Neu5Ac(a2-8)Neu5Ac(a2-3)Gal(b1-3)GalNAc(b1-4)[Neu5Ac(a2-3)]Gal(b1-4)Glc
# Procedure, shortened: as §1
# [3] = biological target: Neu5Ac(a2-8)Neu5Ac(a2-3)Gal(b1-3)GalNAc(b1-4)[Neu5Ac(a2-8)Neu5Ac(a2-3)]Gal(b1-4)Glc
# Procedure, shortened: as §1
# [4] = biological target: Neu5Ac(a2-8)Neu5Ac(a2-3)Gal(b1-4)Glc
# Procedure, shortened: as §1
# [5] = biological target: Neu5Ac(a2-8)Neu5Ac(a2-3)Gal(b1-4)GlcNAc
# Procedure, shortened: as §1
# [6] = biological target: Neu5Ac(a2-8)Neu5Ac(a2-3)[Gal(b1-3)GalNAc(b1-4)]Gal(b1-4)Glc
# Procedure, shortened: as §1
# [7] = biological target: Neu5Ac(a2-8)Neu5Ac(a2-3)[GalNAc(b1-4)]Gal(b1-4)Glc
# Procedure, shortened: as §1
# [8] = biological target: Neu5Ac(a2-8)Neu5Ac(a2-8)Neu5Ac
# Procedure, shortened: as §1
# [9] = biological target: Neu5Ac(a2-8)Neu5Ac(a2-8)Neu5Ac(a2-3)Gal(b1-4)Glc
# Procedure, shortened: as §1
# [10] = biological target: Neu5Ac(a2-8)Neu5Ac(a2-8)Neu5Ac(a2-3)[Gal(b1-3)GalNAc(b1-4)]Gal(b1-4)Glc
# Procedure, shortened: as §1
# [11] = biological target: Neu5Ac(a2-8)Neu5Ac(a2-8)Neu5Ac(a2-3)[GalNAc(b1-4)]Gal(b1-4)Glc
# Procedure, shortened: as §1
# [12] = biological target: Neu5Ac(a2-8)Neu5Ac(a2-8)Neu5Ac(a2-8)Neu5Ac(a2-3)[GalNAc(b1-4)]Gal(b1-4)Glc
# Procedure, shortened: as §1
# [13] = biological target: Neu5Ac(a2-8)Neu5Gc(a2-3)Gal(b1-4)GlcNAc
# Procedure, shortened: as §1
# [14] = biological target: Neu5Ac(b2-6)Gal(b1-4)GlcNAc
# Procedure, shortened: as §1
# Neu5Ac(b2-6)GalNAc = biological target: Neu5Ac(b2-6)GalNAc
# Procedure, shortened: as §1
# [15] = biological target: Neu5Ac9Ac(a2-3)Gal(b1-3)GlcNAc
# Procedure, shortened: as §1
# [16] = biological target: Neu5Ac9Ac(a2-3)Gal(b1-4)GlcNAc
# Procedure, shortened: as §1
# [17] = biological target: Neu5Ac9Ac(a2-6)Gal(b1-4)GlcNAc
# Procedure, shortened: as §1
# [18] = biological target: Neu5Gc(a2-3)Gal(b1-3)GlcNAc
# Procedure, shortened: as §1
# [19] = biological target: Neu5Gc(a2-3)Gal(b1-3)[Fuc(a1-4)]GlcNAc
# Procedure, shortened: as §1
# Neu5Gc(a2-3)Gal(b1-4)Glc = biological target: Neu5Gc(a2-3)Gal(b1-4)Glc
# Procedure, shortened: as §1
# [20] = biological target: Neu5Gc(a2-3)Gal(b1-4)GlcNAc
# Procedure, shortened: as §1
# [21] = biological target: Neu5Gc(a2-3)Gal(b1-4)GlcNAc(b1-3)Gal(b1-4)GlcNAc(b1-2)Man(a1-3)[Neu5Gc(a2-3)Gal(b1-4)GlcNAc(b1-3)Gal(b1-4)GlcNAc(b1-2)Man(a1-6)]Man(b1-4)GlcNAc(b1-4)GlcNAc
# Procedure, shortened: as §1
# [22] = biological target: Neu5Gc(a2-3)Gal(b1-4)[Fuc(a1-3)]GlcNAc
# Procedure, shortened: as §1
# [23] = biological target: Neu5Gc(a2-6)Gal(b1-4)GlcNAc
# Procedure, shortened: as §1
# Neu5Gc(a2-6)GalNAc = biological target: Neu5Gc(a2-6)GalNAc
# Procedure, shortened: as §1
# [24] = biological target: Neu5Gc(a2-8)Neu5Ac(a2-3)Gal(b1-4)GlcNAc
# Procedure, shortened: as §1
# [25] = biological target: Neu5Gc(a2-8)Neu5Gc(a2-3)Gal(b1-4)GlcNAc
# Procedure, shortened: as §1
# [26] = biological target: Neu5Gc(a2-8)Neu5Gc(a2-3)Gal(b1-4)GlcNAc(b1-3)Gal(b1-4)GlcNAc
# Procedure, shortened: as §1
# [27] = biological target: Neu5Gc(a2-8)Neu5Gc(a2-6)Gal(b1-4)GlcNAc
# Procedure, shortened: as §1
# [28] = biological target: Neu5Gc(b2-6)Gal(b1-4)GlcNAc
# Procedure, shortened: as §1
binder,measurement,setting,value
B1,glycan array binding signal (z-score),[1],-0.34
same,glycan array binding signal (z-score),Neu5Ac(a2-8)Neu5Ac,-0.54
same,glycan array binding signal (z-score),[2],-0.376
same,glycan array binding signal (z-score),[3],0.304
same,glycan array binding signal (z-score),[4],-0.001
same,glycan array binding signal (z-score),[5],-0.039
same,glycan array binding signal (z-score),[6],0.488
same,glycan array binding signal (z-score),[7],-0.668
same,glycan array binding signal (z-score),[8],-0.792
same,glycan array binding signal (z-score),[9],-0.16
same,glycan array binding signal (z-score),[10],-0.427
same,glycan array binding signal (z-score),[11],-0.182
same,glycan array binding signal (z-score),[12],-0.387
same,glycan array binding signal (z-score),[13],20.7
same,glycan array binding signal (z-score),[14],-0.119
same,glycan array binding signal (z-score),Neu5Ac(b2-6)GalNAc,-0.095
same,glycan array binding signal (z-score),[15],-0.047
same,glycan array binding signal (z-score),[16],-0.106
same,glycan array binding signal (z-score),[17],-0.648
same,glycan array binding signal (z-score),[18],-0.258
same,glycan array binding signal (z-score),[19],-0.226
same,glycan array binding signal (z-score),Neu5Gc(a2-3)Gal(b1-4)Glc,-0.034
same,glycan array binding signal (z-score),[20],-0.278
same,glycan array binding signal (z-score),[21],1.06
same,glycan array binding signal (z-score),[22],0.358
same,glycan array binding signal (z-score),[23],0.432
same,glycan array binding signal (z-score),Neu5Gc(a2-6)GalNAc,-0.31
same,glycan array binding signal (z-score),[24],-0.286
same,glycan array binding signal (z-score),[25],0.008
same,glycan array binding signal (z-score),[26],0.171
same,glycan array binding signal (z-score),[27],0.075
same,glycan array binding signal (z-score),[28],-0.307
